The list shows a part of the results. Sequences were assembled here from the parent chain. Inactive controls read about 0.05.
B1: TEV protease; numbered along this chain (parent)
chain: MGESLFKGPRDYNPISSSICHLTNESDGHTTSLYGIGFGPFIITNKHLFRRNNGTLVVQSLHGVFKVKDTTTLQQHLVDGRDMIIIRMPKDFPPFPQKLKFREPQREERICLVTTNFQTKSMSSMVSDTSCTFPSGDGIFWKHWIQTKDGQCGSPLVSTRDGFIVGIHSASNFTNTNNYFTSVPKNFMELLTNQEAQQWVSGWRLNADSVLWGGHKVFMVKPEEPFQPVKEATQL

Variants of: B1
Assay: raw area under fraction-flipped curve 0-4 h after induction (AUC4h, not background-subtracted), DNA-recorder readout of cleavage of the substrate (dimensionless); higher = more cleavage of the substrate by the protease variant
Settings: temperature: 34 °C; time window: 0-4 h after rhamnose induction
Description: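 In vivo DNA recorder in E. coli TOP10(DE3) ΔrhaA at 34 °C. Each TEVp single-site mutant (parent TEVp 0) is paired with a single-site variant of the 7-mer TEVs (canonical ENLYFQ|S). The substrate sits between flexible linkers in a Bxb1-sfGFP-TEVs-SsrA fusion, so cleavage stabilises Bxb1 and speeds flipping of a recombination array, read by NGS. The value is the raw area under the fraction-flipped curve over 0-4 h after rhamnose induction (AUC4h), with ≥20 reads per time point. It is not background-subtracted; inactive controls average about 0.047.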
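Further: Bxb1 expression induced with 0.2% (w/v) L-rhamnose at OD600 near 0.5, cultures sampled hourly, flipped fraction per protease–substrate barcode pair counted by paired-end Illumina sequencing.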

Variant	area with substrate ENLYFQA	area with substrate ENLYFQC	area with substrate ENLYFQD	area with substrate ENLYFQF	area with substrate ENLYFQG	area with substrate ENLYFQH	area with substrate ENLYFQI	area with substrate ENLYFQK	area with substrate ENLYFQL	area with substrate ENLYFQM	area with substrate ENLYFQN	area with substrate ENLYFQQ	area with substrate ENLYFQR	area with substrate ENLYFQS	area with substrate ENLYFQT	area with substrate ENLYFQV	area with substrate ENLYFQW	area with substrate ENLYFQY	area with substrate ENLYFQP	area with substrate ENLYFQE
E224D	0.0632	0.11	0.0827	0.0906	0.133	0.0814	0.0702	0.0904	0.0607	0.109	0.0665	0.0728	0.0602	0.108	0.0695	0.0594	0.0627	0.0701	–	–
E224I	0.0735	–	0.0694	–	0.0852	0.0841	0.0596	0.111	0.073	–	0.0817	–	0.0777	0.0959	–	0.0703	–	–	0.0573	–
G8W	–	0.0888	0.0465	–	–	–	0.0608	0.0534	0.064	–	0.0765	–	–	0.0884	0.0621	–	0.0702	–	–	–
G8M	–	0.0661	–	–	–	–	–	0.053	–	0.0882	0.0852	–	–	0.0909	0.0562	–	0.0391	–	–	–
G80D	–	0.145	0.0817	0.0868	–	0.0882	0.0552	–	0.0708	0.102	0.0857	–	0.0698	0.124	–	0.0639	0.0722	0.0782	0.0646	0.06
G80Q	–	0.106	0.084	0.0516	0.11	0.0863	0.0616	0.0601	0.0458	0.0936	0.0856	0.0676	0.0586	0.102	0.0644	0.0522	0.0564	0.0761	0.0437	–
F226D	0.11	–	–	–	0.104	–	–	0.0743	0.0616	0.148	0.0566	–	–	0.113	0.0759	–	0.101	–	–	–
L5D	–	0.108	0.0828	–	0.0958	0.0802	0.0677	0.0467	–	–	0.0889	0.0832	–	0.107	0.066	0.0655	0.0688	–	0.0622	–
D208Y	0.0609	0.0517	0.0618	0.0587	–	0.05	0.0439	0.0571	0.0559	0.0763	0.0551	0.0507	0.0618	0.0732	0.0572	0.0512	0.0532	0.0607	0.053	0.0687
D208T	0.0813	0.0752	0.0657	0.0618	0.0849	–	0.0636	0.0568	0.0579	0.0605	0.0701	0.0736	0.0806	0.0785	0.0614	–	0.0694	–	0.0605	0.0612
D208W	0.0538	0.0631	0.0691	–	0.109	0.066	0.0641	0.0658	0.0563	0.0597	0.0597	–	0.0562	0.0677	0.114	0.0628	0.0617	0.064	–	–
D208F	0.0592	0.0703	–	–	0.0665	0.0619	0.0632	0.0601	0.0588	0.0806	0.0683	0.0648	0.0547	0.0707	0.0634	0.0375	–	0.0765	0.0375	–

From the supplement of paper PMC12217912
